The values that follow come from PubChem BioAssay (NCI).

Structures are written as SMILES.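 Cultured in 96-well plates, cells were exposed to test compound for 48 hours across five concentrations. At the GI50, growth is halved. TGI: total growth inhibition.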

The test system of this assay is NCI-H322M lung. Nature of the assay: NCI-60 cell line screen, 48 h.
Take `CC12CCC(C1)C(C)(C)C2OC(=O)c1ccccc1N` (stereo not drawn): the TGI was found to be 26.7 µM.
As for `COc1c(C(N)=O)cc(-c2ccc(Cl)cc2)cc1-c1ccc(S(N)(=O)=O)cc1`, the GI50 was 14500 nM and the TGI is above 25 µM.
Compound `Cc1ccc(/C=c2\c(=O)[nH]c3nc4ccccc4c(=O)n23)cc1` yielded a TGI above 100 µM.
Same read-out and setting: in the case of `O=[N+]([O-])c1c(O)c2nonc2c2nn(-c3ccccc3)nc12` it was above 100 µM.
As for `O=C(Nc1ccc(Br)c2ccccc12)c1ccc2ccccc2c1O`, the TGI is 21.1 µM.
The same measure, in the same setting: in the case of `COc1cc2c(cc1OC)C(Cl)C(c1ccc(Br)cc1)=C2Cl` (stereo not drawn) it was 31.9 µM; in that of `CCOC(=O)c1ccc2nc3n(c2c1)C(c1c(F)cccc1F)SC3` (stereo not drawn), above 100 µM.
The same measure, in the same setting: in the case of `C=C1C(=O)O[C@@H]2/C=C(/C)[C@@H](OC(C)=O)C[C@@H](O)/C(C)=C\[C@@H](OC(=O)[C@]3(C)O[C@@H]3C)[C@@H]12` it was above 100 µM; in that of `OC(CCN1CCN(CCOC(c2ccccc2)c2ccccc2)CC1)c1ccccc1` (stereo not drawn), 78.2 µM.
The same measure, in the same setting: in the case of `CCOC(=O)c1sc2nc(SC)nc3c2c1NCN3C` it was above 100 µM.
Take `CC(C)[C@@H](C(=O)O[C@@H]1/C=C/C(=O)O[C@@H](C)CCC/C=C/[C@@H]2C[C@H](O)C[C@H]21)N(C)C`: the GI50 was 13200 nM and the TGI is above 68.4 µM.
On the same counts, the results for `CC1=CC2(C)/C=C(C)/C=C\CC(O)/C=C3/C=CC(=C4C(=O)OC2(CC1C)C4=O)OC3` (stereo not drawn) are 19200 nM and 45.1 µM.
The compound `O=C(CCCCCNC(=O)c1ccc(Cl)cc1)NO` came in with a TGI of 68.5 µM.
Consider `COC(=O)Nc1nc2ccc(C(=O)c3cccc(I)c3)cc2[nH]1`, for which the GI50 was 133 nM and the TGI was above 67.8 µM.
Compound `COc1cc2[nH]c3c(c2cc1OC)CCN[C@@]31CC[C@@]2(CC3c4c(cc(OC)c(O)c42)CCN3C)C[C@@H]1OC` (stereo partly drawn) showed a TGI above 100 µM.
For the compound `CN1C(=O)N(C)C2C1NC(=S)N2/N=C/C=C/c1ccccc1[N+](=O)[O-]` (stereo not drawn), the GI50 was 5700 nM and the TGI was above 100 µM.
On the same counts, the results for `COc1cc2ncnc(Oc3ccc(NC(=O)Nc4ccc(CN5CCOCC5)c(C(F)(F)F)c4)c4ccccc34)c2cc1OC` are 643 nM and 14.3 µM.
As to `COC(=O)C1=C(C)NC(=S)NC1c1ccc(N(CCCl)CCCl)cc1Cl` (stereo not drawn), the TGI was above 100 µM.
Same read-out and setting: in the case of `N=c1ncn(C/C=C/c2ccccc2)c2nc[nH]c12` it was above 100 µM; in that of `CCOC(=O)c1nc2ccccc2nc1Nc1ccc(C(=O)OC)s1`, above 100 µM; in that of `OC(c1cc(C(F)(F)F)nc2c(Cl)cc(Cl)cc12)C1CCCCN1` (stereo not drawn), above 52.2 µM.
Same read-out and setting: in the case of `OC1OCC(COc2cc(Cl)c(Cl)cc2Cl)OC1O` (stereo not drawn) it was above 100 µM; in that of `COC(=O)/C=C1\C(CO[Si](C)(C)C(C)(C)C)OC(n2cc(C)c(=O)n(C)c2=O)C1O[Si](C)(C)C(C)(C)C` (stereo not drawn), above 100 µM.
As for `CCOC(=O)N1CCC(N=C2CSc3nnc(-c4cc(C(F)(F)F)cc(C(F)(F)F)c4)n3N2)CC1`, the GI50 is 2950 nM and the TGI came to 12 µM.
The compound `NC(=Nc1ccccc1)N/N=C/c1c[nH]c2ccccc12` returned a TGI of 15.8 µM.
In the case of `CCN1CCN(c2ccc(NC(=O)Nc3nc4ccc(-c5ccccc5OC)cc4s3)cc2)CC1`, the GI50 is 1530 nM and the TGI came to 3.03 µM.
On to `CC(=O)C(CN1C(=O)c2ccccc2C1=O)C(C)=O`, for which the TGI is above 100 µM.
For `O=C(Nc1nc2c(C(F)(F)F)cccc2s1)c1cc(Cl)ccc1O`, the GI50 was 326 nM and the TGI was determined as 14.2 µM.
For `O=C1C=CC2C3C(=O)N(c4ccccc4)C(=O)C3C1N2Cc1ccccc1` (stereo not drawn) the same measures were 10200 nM and 23.7 µM.
For `Cc1ccc2sc3c(NCCCN)nc4ccccc4c3c(=O)c2c1` the same measures were 1780 nM and 3.53 µM.
For `CCN1CCN(C(=O)[C@]23CC[C@@H](C)[C@H](C)[C@@H]2C2=CC[C@@H]4[C@@]5(C)CCC(=O)C(C)(C)[C@@H]5CC[C@@]4(C)[C@]2(C)CC3)CC1` the same measures were 1570 nM and 5.43 µM.
